Data published in paper PMC4440769.
No constants are given. Whether binding was seen depends on the method and setting. In cells and extracts the contact can be indirect. Some results given as binding are weak or reduced against the parent protein; the word gives no strength. For some of these results: Where a sequence is shown, tags or fusion partners need not be part of it.

Chains of the proteins cited; added tags and fusions are not shown.
UniProt Q9Y6K9: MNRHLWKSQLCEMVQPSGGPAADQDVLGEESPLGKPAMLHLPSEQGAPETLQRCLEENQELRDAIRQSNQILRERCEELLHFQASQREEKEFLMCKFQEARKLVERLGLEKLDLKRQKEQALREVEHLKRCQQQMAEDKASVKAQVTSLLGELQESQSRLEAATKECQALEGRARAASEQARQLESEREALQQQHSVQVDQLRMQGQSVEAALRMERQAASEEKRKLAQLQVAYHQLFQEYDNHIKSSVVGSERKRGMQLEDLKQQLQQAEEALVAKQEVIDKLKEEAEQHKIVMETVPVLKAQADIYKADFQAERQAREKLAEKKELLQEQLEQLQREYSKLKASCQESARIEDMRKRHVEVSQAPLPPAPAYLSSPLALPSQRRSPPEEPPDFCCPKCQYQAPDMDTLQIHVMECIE
UniProt Q96EP0: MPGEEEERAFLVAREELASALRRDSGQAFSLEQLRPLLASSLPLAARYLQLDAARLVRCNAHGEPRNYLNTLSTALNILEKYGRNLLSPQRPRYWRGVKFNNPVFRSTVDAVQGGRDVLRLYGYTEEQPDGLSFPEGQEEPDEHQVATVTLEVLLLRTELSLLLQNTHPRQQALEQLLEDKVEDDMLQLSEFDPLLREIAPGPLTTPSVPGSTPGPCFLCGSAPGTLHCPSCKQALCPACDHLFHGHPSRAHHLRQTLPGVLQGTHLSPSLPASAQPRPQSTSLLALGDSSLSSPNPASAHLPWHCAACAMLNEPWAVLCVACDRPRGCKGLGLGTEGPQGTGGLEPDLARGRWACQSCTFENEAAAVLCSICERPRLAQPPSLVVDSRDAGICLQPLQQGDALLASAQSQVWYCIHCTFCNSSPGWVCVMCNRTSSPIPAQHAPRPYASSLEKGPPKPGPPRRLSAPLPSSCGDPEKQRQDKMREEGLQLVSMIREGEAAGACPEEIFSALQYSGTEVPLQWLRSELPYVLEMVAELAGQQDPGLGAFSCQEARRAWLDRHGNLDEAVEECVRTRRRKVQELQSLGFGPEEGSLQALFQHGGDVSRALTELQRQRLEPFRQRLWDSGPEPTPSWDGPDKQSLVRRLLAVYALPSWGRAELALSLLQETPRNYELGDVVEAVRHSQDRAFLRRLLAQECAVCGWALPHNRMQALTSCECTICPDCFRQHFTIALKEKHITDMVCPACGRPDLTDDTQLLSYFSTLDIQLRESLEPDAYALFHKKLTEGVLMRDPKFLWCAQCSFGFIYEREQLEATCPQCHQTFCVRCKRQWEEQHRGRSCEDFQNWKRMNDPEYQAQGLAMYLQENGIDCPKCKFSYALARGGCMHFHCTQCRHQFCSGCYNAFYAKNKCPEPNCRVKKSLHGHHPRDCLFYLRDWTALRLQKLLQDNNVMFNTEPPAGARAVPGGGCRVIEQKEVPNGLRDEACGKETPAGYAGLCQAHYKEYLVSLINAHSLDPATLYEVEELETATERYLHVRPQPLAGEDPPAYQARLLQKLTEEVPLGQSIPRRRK
UniProt P03230: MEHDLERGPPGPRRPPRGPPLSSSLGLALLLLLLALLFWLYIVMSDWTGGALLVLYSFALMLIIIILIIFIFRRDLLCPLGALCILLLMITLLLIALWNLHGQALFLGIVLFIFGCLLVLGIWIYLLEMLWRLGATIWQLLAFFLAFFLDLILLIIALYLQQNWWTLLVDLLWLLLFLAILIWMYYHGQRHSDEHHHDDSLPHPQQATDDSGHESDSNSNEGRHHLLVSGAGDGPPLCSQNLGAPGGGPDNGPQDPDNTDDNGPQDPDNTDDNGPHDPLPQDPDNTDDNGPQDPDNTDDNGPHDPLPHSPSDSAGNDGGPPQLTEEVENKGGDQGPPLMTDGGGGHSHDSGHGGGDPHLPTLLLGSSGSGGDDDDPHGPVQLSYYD
UniProt Q15025: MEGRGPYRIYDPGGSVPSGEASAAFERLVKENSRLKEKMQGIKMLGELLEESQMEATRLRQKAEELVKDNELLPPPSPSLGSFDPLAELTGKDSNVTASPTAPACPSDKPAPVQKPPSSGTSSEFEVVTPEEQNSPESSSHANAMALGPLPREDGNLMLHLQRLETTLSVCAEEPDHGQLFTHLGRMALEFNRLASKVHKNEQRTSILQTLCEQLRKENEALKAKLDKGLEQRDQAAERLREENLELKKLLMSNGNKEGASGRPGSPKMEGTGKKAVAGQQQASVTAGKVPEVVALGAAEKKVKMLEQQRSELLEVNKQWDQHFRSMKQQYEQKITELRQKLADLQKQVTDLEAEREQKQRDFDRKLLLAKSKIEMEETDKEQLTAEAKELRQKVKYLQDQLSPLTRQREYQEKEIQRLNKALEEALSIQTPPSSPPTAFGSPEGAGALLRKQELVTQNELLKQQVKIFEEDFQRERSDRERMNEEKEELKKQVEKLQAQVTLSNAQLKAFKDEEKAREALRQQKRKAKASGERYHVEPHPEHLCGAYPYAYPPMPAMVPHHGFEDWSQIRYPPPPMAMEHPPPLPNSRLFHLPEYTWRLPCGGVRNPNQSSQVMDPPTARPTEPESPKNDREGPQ

Columns and labels:
FLAG-TRAF1 (GM12878) = biological target: T1, FLAG-TRAF1 (GM12878) (UniProt Q13077); test: co-IP; anti-FLAG immuno-purification from GM12878 LCLs with stable FLAG-TRAF1 or FLAG-GFP expression, western blot
T1 sequence: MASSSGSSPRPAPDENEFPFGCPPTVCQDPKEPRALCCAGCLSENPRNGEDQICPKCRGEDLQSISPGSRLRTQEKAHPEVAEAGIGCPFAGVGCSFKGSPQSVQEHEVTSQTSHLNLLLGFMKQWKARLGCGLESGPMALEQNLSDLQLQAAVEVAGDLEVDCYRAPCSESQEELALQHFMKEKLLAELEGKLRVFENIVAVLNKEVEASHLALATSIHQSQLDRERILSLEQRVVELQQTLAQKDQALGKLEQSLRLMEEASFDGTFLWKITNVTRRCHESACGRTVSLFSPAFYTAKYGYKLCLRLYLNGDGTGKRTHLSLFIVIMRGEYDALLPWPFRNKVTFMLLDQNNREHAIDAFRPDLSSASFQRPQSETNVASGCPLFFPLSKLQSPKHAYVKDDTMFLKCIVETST

HA-SHARPIN = biological target: T2, HA-SHARPIN (UniProt Q9H0F6); test: co-IP; HA immuno-purification from GM12878 stable cell lines (HA-SHARPIN, HA-IKK-gamma, HA-GFP), western blot
T2 sequence: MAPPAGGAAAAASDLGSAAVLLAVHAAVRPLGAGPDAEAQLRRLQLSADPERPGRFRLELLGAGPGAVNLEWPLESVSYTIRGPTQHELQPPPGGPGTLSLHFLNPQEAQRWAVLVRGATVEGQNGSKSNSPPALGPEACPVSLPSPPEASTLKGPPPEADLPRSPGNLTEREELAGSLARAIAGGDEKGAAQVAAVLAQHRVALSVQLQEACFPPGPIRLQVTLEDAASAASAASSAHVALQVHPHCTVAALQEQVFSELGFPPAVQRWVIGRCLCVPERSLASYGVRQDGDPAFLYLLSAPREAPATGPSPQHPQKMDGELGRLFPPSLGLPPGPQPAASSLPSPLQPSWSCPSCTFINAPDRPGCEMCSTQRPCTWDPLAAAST

FLAG-TRAF1 = biological target: T3, FLAG-TRAF1 (UniProt Q13077); test: co-IP
T3 sequence: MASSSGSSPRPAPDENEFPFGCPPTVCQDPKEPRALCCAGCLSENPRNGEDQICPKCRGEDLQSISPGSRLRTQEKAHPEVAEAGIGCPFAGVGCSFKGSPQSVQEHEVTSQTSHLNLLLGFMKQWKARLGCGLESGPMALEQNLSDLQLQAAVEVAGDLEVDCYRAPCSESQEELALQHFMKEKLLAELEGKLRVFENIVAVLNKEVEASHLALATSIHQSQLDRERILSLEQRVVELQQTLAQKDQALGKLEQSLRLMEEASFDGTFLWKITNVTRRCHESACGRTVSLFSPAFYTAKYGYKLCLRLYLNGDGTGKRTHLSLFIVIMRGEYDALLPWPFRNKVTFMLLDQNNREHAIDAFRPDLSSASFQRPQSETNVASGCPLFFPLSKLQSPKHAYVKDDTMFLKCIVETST

FLAG-TRAF1 264–416 = FLAG-TRAF1 264–416 (UniProt Q13077); test: co-IP
HA-tagged IKK-gamma = HA-tagged IKK-gamma (UniProt Q9Y6K9); test: co-IP; HA immuno-purification from GM12878 stable cell lines (HA-SHARPIN, HA-IKK-gamma, HA-GFP), western blot

For “HOIP (endogenous, GM12878) (from UniProt Q96EP0 1-1072)”, the binding (FLAG-TRAF1 (GM12878)) was “binds”.

In the case of “IKK-gamma (endogenous, GM12878) (from UniProt Q9Y6K9 1-419)”, the binding (FLAG-TRAF1 (GM12878)) is reported as “binds”.

For “Latent Membrane Protein 1 (LMP1), untagged, in GM12878 (from UniProt P03230 1-386)”, the binding (HA-SHARPIN) was “binds”.

In the case of “ABIN1 (endogenous, 293) (from UniProt Q15025 1-636)”, the binding (FLAG-TRAF1) is reported as “binds”.

For “HOIP (endogenous, 293) (from UniProt Q96EP0 1-1072)”, the binding (FLAG-TRAF1) was “binds”.

“untagged wildtype LMP1 (transfected) (from UniProt P03230)” was tested, and the binding (FLAG-TRAF1 264–416) was “no binding”.

B1: SHARPIN (endogenous, 293) (protein, UniProt Q9H0F6 1-387)
chain: MAPPAGGAAAAASDLGSAAVLLAVHAAVRPLGAGPDAEAQLRRLQLSADPERPGRFRLELLGAGPGAVNLEWPLESVSYTIRGPTQHELQPPPGGPGTLSLHFLNPQEAQRWAVLVRGATVEGQNGSKSNSPPALGPEACPVSLPSPPEASTLKGPPPEADLPRSPGNLTEREELAGSLARAIAGGDEKGAAQVAAVLAQHRVALSVQLQEACFPPGPIRLQVTLEDAASAASAASSAHVALQVHPHCTVAALQEQVFSELGFPPAVQRWVIGRCLCVPERSLASYGVRQDGDPAFLYLLSAPREAPATGPSPQHPQKMDGELGRLFPPSLGLPPGPQPAASSLPSPLQPSWSCPSCTFINAPDRPGCEMCSTQRPCTWDPLAAAST
With B1 the binding (FLAG-TRAF1) was “binds”.

B2: SHARPIN (endogenous, GM12878) (protein, UniProt Q9H0F6 1-387)
chain: MAPPAGGAAAAASDLGSAAVLLAVHAAVRPLGAGPDAEAQLRRLQLSADPERPGRFRLELLGAGPGAVNLEWPLESVSYTIRGPTQHELQPPPGGPGTLSLHFLNPQEAQRWAVLVRGATVEGQNGSKSNSPPALGPEACPVSLPSPPEASTLKGPPPEADLPRSPGNLTEREELAGSLARAIAGGDEKGAAQVAAVLAQHRVALSVQLQEACFPPGPIRLQVTLEDAASAASAASSAHVALQVHPHCTVAALQEQVFSELGFPPAVQRWVIGRCLCVPERSLASYGVRQDGDPAFLYLLSAPREAPATGPSPQHPQKMDGELGRLFPPSLGLPPGPQPAASSLPSPLQPSWSCPSCTFINAPDRPGCEMCSTQRPCTWDPLAAAST
With B2 the binding (FLAG-TRAF1 (GM12878)) was “binds”.

B3: TRAF1 (endogenous, GM12878) (protein, UniProt Q13077 1-416)
chain: MASSSGSSPRPAPDENEFPFGCPPTVCQDPKEPRALCCAGCLSENPRNGEDQICPKCRGEDLQSISPGSRLRTQEKAHPEVAEAGIGCPFAGVGCSFKGSPQSVQEHEVTSQTSHLNLLLGFMKQWKARLGCGLESGPMALEQNLSDLQLQAAVEVAGDLEVDCYRAPCSESQEELALQHFMKEKLLAELEGKLRVFENIVAVLNKEVEASHLALATSIHQSQLDRERILSLEQRVVELQQTLAQKDQALGKLEQSLRLMEEASFDGTFLWKITNVTRRCHESACGRTVSLFSPAFYTAKYGYKLCLRLYLNGDGTGKRTHLSLFIVIMRGEYDALLPWPFRNKVTFMLLDQNNREHAIDAFRPDLSSASFQRPQSETNVASGCPLFFPLSKLQSPKHAYVKDDTMFLKCIVETST
With B3 the binding (HA-SHARPIN) was “binds” and the binding (HA-tagged IKK-gamma) was “binds”.
